Measurements from the BET-seq Pho4 binding data (Le et al. 2018).
Some of the results follow. The energies were worked out here from pooled read counts, against the library average; single values are noisy.

Target: T1, Pho4 (S. cerevisiae) (UniProt P07270)
T1 sequence: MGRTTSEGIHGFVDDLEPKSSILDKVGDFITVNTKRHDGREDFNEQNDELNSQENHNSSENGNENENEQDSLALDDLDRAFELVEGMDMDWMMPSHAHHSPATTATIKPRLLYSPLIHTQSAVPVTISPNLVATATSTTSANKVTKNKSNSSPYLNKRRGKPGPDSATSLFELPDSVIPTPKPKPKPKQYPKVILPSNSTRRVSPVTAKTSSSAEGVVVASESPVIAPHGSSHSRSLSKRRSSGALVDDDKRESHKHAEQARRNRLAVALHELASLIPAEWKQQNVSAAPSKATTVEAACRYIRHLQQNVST
Assay: relative binding free energy (BET-seq); higher = weaker binding
Settings: reference: library average

Sequence	relative binding free energy [kcal/mol]
GGAGGCACGTGATGAT	0.03
CATATCACGTGGTTGG	-0.04
ATTGTCACGTGAGTCG	0.26
TTGAGCACGTGGTTAG	-0.18
TGATTCACGTGTTTCG	0.17
GTTGGCACGTGGTATC	-0.13
AGTTGCACGTGATGGG	0.21
GAGTTCACGTGTAAGA	0.43
AGTAACACGTGGAGGC	0.11
TGTGGCACGTGAATTG	0.03
AATTGCACGTGTAGGT	0.01
GGGATCACGTGGGGCA	0
GATGGCACGTGAAGCG	0.26
CAAAGCACGTGTGTGT	-0.02
TGAGTCACGTGGGTTG	0.02
GGGCACACGTGTATGT	0.11
GCGGGCACGTGTGGCG	-0.12
TAGTGCACGTGATGCT	0.08
AAAGGCACGTGGGATG	-0.14
GATTTCACGTGGAGAA	0.46
TGTGGCACGTGATTAG	0.02
AATGGCACGTGAAGAG	0.2
ATTTTCACGTGAGAAT	0.38

Sequence	relative binding free energy [kcal/mol]
ATCGGCACGTGGCGGT	-0.18
TGCATCACGTGTCTGG	0.2
TGCGACACGTGTTCGG	0.12
ATGGTCACGTGGGTTT	0.01
TGGTACACGTGTGCTT	-0.02
TGTGGCACGTGTGAAT	0.02
AGGTTCACGTGGCTGT	0.28
TAGGCCACGTGGGTGA	-0.33
CGTTCCACGTGTGGCG	0.17
GCAATCACGTGGGGGA	0.03
GGTTACACGTGTAAGC	0.32
GCATTCACGTGGTTGT	0.26
GCTGGCACGTGGGCGT	-0.06
TTAATCACGTGAGTTA	0.37
ATTAGCACGTGTTTAT	-0.12
AGTTTCACGTGAGCTG	0.49
GACTGCACGTGGTTTG	-0.1
CTGGACACGTGTTATG	0.03
GCTGTCACGTGGGCTG	0
ATATACACGTGCTGTG	-0.11
TGTTTCACGTGTCTTA	0.3
GTTAGCACGTGAAAGG	0.23
CGCTGCACGTGTGGTG	-0.01

Sequence	relative binding free energy [kcal/mol]
GATTTCACGTGCTTTG	0.23
TACTTCACGTGGGGGC	0.26
GATAGCACGTGGGTAG	-0.15
CTTTTCACGTGAGGGC	0.41
AATGGCACGTGGCAGG	-0.1
TATTCCACGTGTATAG	0.19
GTTGGCACGTGTAGCT	-0.01
ATGAGCACGTGCTGTT	-0.13
ATCGGCACGTGCTAGG	0.02
TATGACACGTGGCTGG	-0.16
GTTCTCACGTGGGTAG	0.24
TGTTTCACGTGATCTC	0.23
GTCGTCACGTGTTGGG	0.17
GCTTGCACGTGGTGCT	-0.08
TTTTGCACGTGGGGAA	-0.07
TTATTCACGTGAAGAA	0.42
TGGAACACGTGTGCAT	0
TTGACCACGTGGGTTG	-0.21
CTTTACACGTGATGGT	0.17
TGGTACACGTGTGCGG	0.06
TTTGCCACGTGCAGTT	0
GGCTTCACGTGGGCGG	0.07
AAGTGCACGTGGCGAT	-0.14

Sequence	relative binding free energy [kcal/mol]
GGGGGCACGTGGAGAT	-0.08
GTTGGCACGTGTGCTC	-0.06
AGTGGCACGTGGCGGT	-0.12
AATTGCACGTGGTGCT	-0.1
TAGTGCACGTGAAAGA	0.22
TGCGGCACGTGGTCAG	-0.3
AGTAGCACGTGTCGCG	-0.05
TGTAACACGTGAGCTT	0.23
TCAGGCACGTGAGGGG	0.1
GTGCGCACGTGTAGAG	0.03
TCTGGCACGTGTAGCG	-0.07
CGTTTCACGTGGATTG	0.31
GAGTGCACGTGCAGGG	-0.04
TCTTTCACGTGTGGTA	0.28
CGCTACACGTGTGGGG	-0.06
ATACACACGTGTGGGT	-0.03
GAAAGCACGTGGTAGG	-0.19
TATATCACGTGTGTCT	0.13
TACGTCACGTGTTAAG	0.11
ATAGGCACGTGTGTAG	-0.17
TTGTTCACGTGCTTGA	0.17
TTGATCACGTGCTTTT	0.1
TAGTACACGTGGTATA	-0.05

Sequence	relative binding free energy [kcal/mol]
ATTGTCACGTGTATAT	0.15
GTGGGCACGTGATACG	-0.04
GAGGGCACGTGTGTCG	-0.05
TGATACACGTGGCGTT	-0.13
AAATGCACGTGTGTTG	0.01
TGATTCACGTGGGCCG	0.14
ATAGTCACGTGCGTTA	-0.13
TAGGTCACGTGAGGCA	0.21
ATTGTCACGTGGAGCG	-0.03
GGAAACACGTGGCGGT	-0.02
GGTCCCACGTGATGTG	0.07
GTGCTCACGTGGCTGT	0.17
AGAGGCACGTGGTCAG	-0.19
TAAGGCACGTGTTGCG	-0.25
TAAGGCACGTGGGTTT	-0.19
CGCGGCACGTGGGTAG	-0.12
GTTGGCACGTGGGTTA	-0.06
ATTTGCACGTGCGCTT	-0.15
TGTCACACGTGGGTTA	0.07
ATGGACACGTGATTTG	0.27
GTATACACGTGACGGG	0.13
TTGGTCACGTGCGAAT	0.1
AGTAGCACGTGTGGTC	-0.1
